{"source": "PubChem BioAssay AID1508642", "about": "(National Center for Advancing Translational Sciences (NCATS), 2021)", "note": "The whole screen tested about 43,000 compounds, of which about 200 (0.47%) were called active. Inconclusive results (about 12%) are left out. The call rests on the fitted dose curve; in most records, active means well fitted cell-killing curve with a large enough effect; inconclusive means small, poorly fitted or top-dose-only effect, or effect the other way; inactive means flat fitted curve, though single readings scatter. The list shows a part of the results. On the % scale 0 is the no-effect control and ±100 the full control effect.", "data": [{"assay": "Cell viability qHTS assay in S16 Pmp22-F2sN cells; further: nearly all actives have a fitted effect of over 65% in size", "conditions": "S16 Pmp22-F2sN Schwann cells (luciferase reporters placed in the Pmp22 gene) viability, CellTiter-Glo, 24 h; series mostly up to 57.5 µM; activity change, negative = cytotoxicity: at the top concentration", "in_short": "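S16 Schwann cells carrying the Pmp22-F2sN reporter, seeded in 1536-well format, were exposed to library compounds for 24 h at 37C. Viability was read as CellTiter-Glo luminescence after 15 min at room temperature.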", "values": [{"smiles": "COc1ccc(S(=O)(=O)NCc2nc(-c3ccccc3)no2)cc1", "activity change, negative = cytotoxicity": "inactive: 3.6%"}, {"smiles": "COc1ccc(OC)c(C2C(C(=O)Nc3ccc(C)cc3)=C(C)Nc3nnnn32)c1", "note": "(stereo not given)", "activity change, negative = cytotoxicity": "inactive: 20.1%"}, {"smiles": "Cc1ccc(NC(=O)c2ccc(CN3CC(=O)N4CCCCC4C3=O)cc2)c(Cl)c1", "note": "(stereo not given)", "activity change, negative = cytotoxicity": "inactive: 0.056%"}, {"smiles": "CN(CC(=O)Nc1cccc(F)c1)S(=O)(=O)c1ccc2c(c1)n(C)c(=O)c(=O)n2C", "activity change, negative = cytotoxicity": "inactive: -21.8%"}, {"smiles": "COc1ccc(Cn2ccc3nc(C)c(C(=O)NCc4ccc(SC)cc4)cc3c2=O)cc1", "activity change, negative = cytotoxicity": "inactive: -0.515%"}, {"smiles": "Cc1ccccc1NC(=O)Cn1nc(-c2ccccc2)nc(Cc2ccccc2)c1=O", "activity change, negative = cytotoxicity": "inactive: 1.86%"}, {"smiles": "Cc1ccc(CNS(=O)(=O)c2cnc(N)nc2)cc1", "activity change, negative = cytotoxicity": "inactive: 0.912%"}, {"smiles": "O=C(c1cc2c(Cl)nc3ccccc3c2s1)N1CCCCC1", "activity change, negative = cytotoxicity": "inactive: -9.73%"}, {"smiles": "Oc1ccc(-c2nc3ccc(Cl)cn3c2Nc2ccc(Cl)cc2)cc1", "activity change, negative = cytotoxicity": "inactive: 12.2%"}, {"smiles": "COc1ccc(CNC(=O)CSc2nnc(C)c3c(C)n(-c4ccccc4)nc23)c(OC)c1", "activity change, negative = cytotoxicity": "inactive: -16.3%"}, {"smiles": "CCc1ccc2ncc3c(-c4ccc(C)cc4)nn(CC(=O)NCc4ccccc4)c3c2c1", "activity change, negative = cytotoxicity": "inactive: 1.09%"}, {"smiles": "Cc1cc(C)cc(N(CC(=O)NCCc2ccc(Cl)cc2)S(=O)(=O)c2c(C)noc2C)c1", "activity change, negative = cytotoxicity": "inactive: 7.83%"}, {"smiles": "Cc1ccc2c(c1)c1c(c(=O)n(-c3ccccc3)c(=O)n1Cc1ccccc1C)n2C", "activity change, negative = cytotoxicity": "inactive: 9.57%"}, {"smiles": "CN1CCN(C(=O)c2cnn(-c3ccc(F)cc3F)c2C2CCN(C(=O)OC(C)(C)C)CC2)CC1", "activity change, negative = cytotoxicity": "inactive: 7.83%"}, {"smiles": "COc1ccc(NC(=O)Nc2nnc(N3CCCC3)s2)cc1", "activity change, negative = cytotoxicity": "inactive: -1.59%"}, {"smiles": "CCC(=O)N1c2ccccc2CC1C(=O)NCc1ccc(CC)cc1", "note": "(stereo not given)", "activity change, negative = cytotoxicity": "inactive: 9.63%"}, {"smiles": "Cc1ccc2c(=O)cc(C(=O)N(Cc3ccc(C(C)(C)C)cc3)C3CCS(=O)(=O)C3)oc2c1", "note": "(stereo not given)", "activity change, negative = cytotoxicity": "inactive: -4.55%"}, {"smiles": "COC(=O)c1ccc(NC(=O)c2cc(S(=O)(=O)N3CCOCC3)cn2C)cc1", "activity change, negative = cytotoxicity": "inactive: 12.9%"}, {"smiles": "Cc1ccccc1OCC(=O)Nc1ccc(S(=O)(=O)N(Cc2ccccc2)c2ccccc2)cc1", "activity change, negative = cytotoxicity": "inactive: -5.24%"}, {"smiles": "CC(=O)Nc1ccc(NS(=O)(=O)c2c(C(=O)N3CCCCCC3)c(C)n(C)c2C)cc1", "activity change, negative = cytotoxicity": "inactive: 4.21%"}, {"smiles": "CN(C)c1ccc(NC(=O)Cn2c(SCc3ccc(F)cc3)nc3ccncc32)cc1", "activity change, negative = cytotoxicity": "inactive: -28.3%"}, {"smiles": "COc1ccc(CCNC(=O)CSc2cn(CCNC(=O)c3c(F)cccc3F)c3ccccc23)cc1OC", "activity change, negative = cytotoxicity": "inactive: 12.6%"}, {"smiles": "Cc1oc2cc3oc(=O)c(CCC(=O)NCCc4ccccc4F)c(C)c3cc2c1C", "activity change, negative = cytotoxicity": "inactive: -0.45%"}, {"smiles": "COc1ccc(-c2nc3c(c(SCc4ccc(Br)cc4)n2)Cc2c(CO)cnc(C)c2O3)cc1", "activity change, negative = cytotoxicity": "inactive: -3.35%"}, {"smiles": "Cc1ccc(OCCSc2nnc(-c3cccs3)o2)cc1", "activity change, negative = cytotoxicity": "inactive: 3.05%"}, {"smiles": "Cc1ccc(C(=O)COC(=O)CCC(=O)Nc2ccc(Oc3ccccc3)cc2)cc1", "activity change, negative = cytotoxicity": "inactive: 7.16%"}, {"smiles": "COc1ccc(Cn2c(=O)c3oc4ccccc4c3n(CC(=O)Nc3c(C)cccc3C)c2=O)cc1", "activity change, negative = cytotoxicity": "inactive: 8.3%"}, {"smiles": "COc1ccc(N2CCN(S(=O)(=O)c3ccc(-c4coc(C)n4)cc3)CC2)cc1", "activity change, negative = cytotoxicity": "inactive: -6.43%"}, {"smiles": "CCOc1ccc(CC(=O)Nc2c(C(=O)c3ccccc3)oc3ccc(Cl)cc23)cc1OCC", "activity change, negative = cytotoxicity": "inactive: 0.783%"}, {"smiles": "CCCCC12CN3CC(C)(CN(C1)C3c1c[nH]c3ccccc13)C2=O", "note": "(stereo not given)", "activity change, negative = cytotoxicity": "inactive: 15.1%"}, {"smiles": "Cc1cccc(CSc2nc3c([nH]c4ccccc43)c(=O)n2C)c1", "activity change, negative = cytotoxicity": "inactive: 0.703%"}, {"smiles": "Cc1ccc(NC(=O)C(CC(C)C)N2Cc3ccccc3C2=O)cc1F", "note": "(stereo not given)", "activity change, negative = cytotoxicity": "inactive: -10.5%"}, {"smiles": "CNS(=O)(=O)c1cn(CC(=O)N2CCN(c3ccc(C(C)=O)cc3)CC2)cc1S(=O)(=O)NC", "activity change, negative = cytotoxicity": "inactive: 12.6%"}, {"smiles": "COc1cc2c(cc1OC)n(CC(=O)c1cc(C)ccc1C)c(=O)n1nc(CCn3nc(C)cc3C)nc21", "activity change, negative = cytotoxicity": "inactive: 7.29%"}, {"smiles": "Cc1c(CCNC(=O)c2ccc(C(C)(C)C)cc2)sc2nc(-c3ccc(F)cc3)nn12", "activity change, negative = cytotoxicity": "inactive: -1.51%"}, {"smiles": "CC1=C(C(=O)Nc2cccnc2)C(c2ccc(C)cc2)n2nc(SCc3ccccc3F)nc2N1", "note": "(stereo not given)", "activity change, negative = cytotoxicity": "inactive: 16.6%"}, {"smiles": "CCc1cc2c(cc3c(=O)n(CCCC(=O)NCc4cccc(Br)c4)ncn32)s1", "activity change, negative = cytotoxicity": "inactive: -0.633%"}, {"smiles": "CC(=O)Nc1ccccc1-c1nc2ccccc2n(CC(=O)Nc2cccc(C)c2C)c1=O", "activity change, negative = cytotoxicity": "inactive: -3.3%"}, {"smiles": "Cc1ccc2nc(SCc3nc(-c4ccc(Cl)cc4)no3)[nH]c2c1", "activity change, negative = cytotoxicity": "inactive: -8.53%"}, {"smiles": "O=C(CSc1nc(=O)n(CCN2CCOCC2)c2c1CCC2)Nc1ccc(Cl)c(Cl)c1", "activity change, negative = cytotoxicity": "inactive: 7.12%"}, {"smiles": "O=C(Nc1ccc(F)c(Cl)c1)Nc1c[nH]c(=O)[nH]c1=O", "activity change, negative = cytotoxicity": "inactive: -8.58%"}, {"smiles": "COc1ccc(C2CC(=O)N(Cc3ccc(C)cc3)c3c2c(C)nn3-c2nc(C)cc(C)n2)c(OC)c1", "note": "(stereo not given)", "activity change, negative = cytotoxicity": "inactive: -12.9%"}, {"smiles": "Cc1cc2c(cc1S(=O)(=O)Nc1cccc(Cl)c1C)n(C)c(=O)c(=O)n2C", "activity change, negative = cytotoxicity": "inactive: -12.1%"}, {"smiles": "CCOC(=O)c1cc(-c2ccccc2)n(CCC(=O)Nc2ccccc2CC)c1C", "activity change, negative = cytotoxicity": "inactive: 3.44%"}, {"smiles": "COc1ccc(NC(=O)c2cc3cc(C)ccc3[nH]2)cc1", "activity change, negative = cytotoxicity": "inactive: 12.2%"}, {"smiles": "COc1ccccc1N1CCN(c2ccc(=O)n(CC(=O)NCc3ccc(F)cc3)n2)CC1", "activity change, negative = cytotoxicity": "inactive: -3.4%"}, {"smiles": "O=C(OCc1cc(=O)n2nc(-c3cccs3)sc2n1)c1ccccc1Cl", "activity change, negative = cytotoxicity": "inactive: -3.54%"}, {"smiles": "COc1cccc(CSc2nc3n(n2)C(c2ccc(C(=O)O)cc2)C(C(=O)Nc2ccccc2)=C(C)N3)c1", "note": "(stereo not given)", "activity change, negative = cytotoxicity": "inactive: 2.8%"}, {"smiles": "CCOc1ccccc1NC(=O)CSc1nc2c(oc3ccccc32)c(=O)n1-c1ccc(F)cc1", "activity change, negative = cytotoxicity": "inactive: -1.33%"}, {"smiles": "CC(C)(C)C(=O)CSc1nc2ccsc2c(=O)n1Cc1ccccc1Cl", "activity change, negative = cytotoxicity": "inactive: -0.042%"}, {"smiles": "CSc1ccc(CCNC(=O)c2cc(C)nc3c2c(C)nn3-c2cccc(F)c2)cc1", "activity change, negative = cytotoxicity": "inactive: -2.85%"}, {"smiles": "Cc1c(C(=O)N2CCCCCC2)c(S(=O)(=O)NCc2ccccc2)c(C)n1C", "activity change, negative = cytotoxicity": "inactive: 1.72%"}, {"smiles": "Cc1ccc(-n2nc(C(=O)N3CCN(c4ccccc4F)CC3)c(=O)n(C)c2=O)cc1", "activity change, negative = cytotoxicity": "inactive: -4.12%"}, {"smiles": "CCCCCc1ccc(-c2ccc(Br)cc2)nc1", "activity change, negative = cytotoxicity": "inactive: 12%"}, {"smiles": "O=C(NCc1ccccc1F)C(=O)NCC(c1ccc2c(c1)OCO2)N1CCOCC1", "note": "(stereo not given)", "activity change, negative = cytotoxicity": "inactive: 1.05%"}, {"smiles": "CCOc1ccc(CCNC(=O)c2c(C)oc3ncn(CC(C)C)c(=O)c23)cc1OCC", "activity change, negative = cytotoxicity": "inactive: -2.65%"}, {"smiles": "CC(=O)N1CCc2c(sc3c2c(=O)n(-c2ccccc2)c(=O)n3CC(=O)Nc2cc(C)cc(C)c2)C1", "activity change, negative = cytotoxicity": "inactive: -3.96%"}, {"smiles": "CCc1ccc(NC(=O)CSc2nc(C)c(C(=O)Nc3ccccc3)c(-c3ccc(OC)c(OC)c3)c2C#N)cc1", "activity change, negative = cytotoxicity": "inactive: -3.64%"}, {"smiles": "Cc1cc(Br)ccc1NC(=O)CSc1c2c(nc3ccccc13)CCC2", "activity change, negative = cytotoxicity": "inactive: 6.83%"}, {"smiles": "Cc1c(NC(=O)c2cccs2)cccc1-c1nc2cc(Cl)ccc2o1", "activity change, negative = cytotoxicity": "inactive: 9.7%"}]}]}
